Some of the results follow. Further columns of the screen follow, without active or inactive calls.

Experiment in all cases: Primary Screen for Target Class Profiling of Small Molecule Inhibitors of Methyltransferases
Test [1] has as its target Glycine N-methyltransferase (Homo sapiens) (UniProt Q14749). The settings on record: purified enzyme, MTase-Glo SAH luminescence; measured here: GNMT inhibition; at 40 µM; stronger effect = lower value. The procedure, abridged:
(§1)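 Each enzyme was reacted with SAM and its substrate, with compounds tested once at 40 uM; SAH formed was read by MTase-Glo luminescence.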

For test [2], the target named is Guanidinoacetate N-methyltransferase (Homo sapiens) (UniProt Q14353). The settings on record: purified enzyme, MTase-Glo SAH luminescence; measured here: GAMT inhibition; at 40 µM; stronger effect = lower value. The procedure, abridged: as §1
Test [3] has as its target Histamine N-methyltransferase (Homo sapiens) (UniProt P50135). The conditions noted are these: purified enzyme, MTase-Glo SAH luminescence; measured here: HNMT inhibition; at 40 µM; stronger effect = lower value. An outline of the steps: as §1
Test [4] deals with Nicotinamide N-methyltransferase (Homo sapiens) (UniProt P40261). The conditions noted are these: purified enzyme, MTase-Glo SAH luminescence; measured here: NNMT inhibition; at 40 µM; stronger effect = lower value. An outline of the steps: as §1
In test [5] the target is Phenylethanolamine N-methyltransferase (Homo sapiens) (UniProt P11086). The conditions noted are these: purified enzyme, MTase-Glo SAH luminescence; measured here: PNMT inhibition; at 40 µM; stronger effect = lower value. An outline of the steps: as §1
On the % scale 0 is the no-effect control and ±100 the full control effect.

For `COc1cccc(CNC(=O)CCn2ccc3cc(S(=O)(=O)N4CCCC4)ccc32)c1`, the activity change, negative = inhibition in test [1] is -8.89%; in test [2], 2.02%; in test [3] it was -2.81%; in test [4], -12.1%; in test [5], -2.19%.
Take `Cc1cn2c(=O)cc(CN3CC[C@@](C)(O)[C@@H](O)C3)nc2s1`: the activity change, negative = inhibition is -6.94% in test [1]; -6.29% in test [2]; -1.54% in test [3]; -9.66% in test [4]; -3.89% in test [5].
As for `C[C@@H]1O[C@@H](O[C@H]2[C@H](O)[C@@H](O)[C@H](OC3CCC4(C)C5CCC(C)(C(CO)OC6OC(CO)C(O)C(O)C6O)CC5=CCC4C3(C)C)O[C@@H]2CO)[C@H](O)[C@H](O)[C@H]1O` (stereo not given in full), the activity change, negative = inhibition in test [1] was -1.49%; in test [2], -9.61%; in test [3], 1.38%; in test [4], -19.9%; in test [5] it was -0.413%.
On the same counts, the results for `C=C1C[C@]23C[C@H]1CC[C@H]2[C@@]1(C)CCC[C@@]2(C)C(=O)O[C@@H]([C@@H]3O)[C@@H]12` are 0.979%, 0.184%, 9.23%, -14.4% and -10.3%.
Turning to `COc1ccc(-c2nc(-c3ccc(S(=O)(=O)N4CCCCC4)cc3)no2)cc1OC`, the activity change, negative = inhibition is -3.12% in test [1]; 6.09% in test [2]; 5.2% in test [3]; -0.043% in test [4]; 1.72% in test [5].
In the case of `CC1CCN(C(=O)CCn2ccc3cc(S(=O)(=O)N4CCCCC4)ccc32)CC1`, the activity change, negative = inhibition in test [1] is 2.67%; in test [2], 0%; in test [3] it was 0.775%; in test [4], 2.35%; in test [5], 0.198%.
In the case of `Nc1ccc(C(=O)Nc2cccc(-c3nc(N4CCOCC4)c4oc5ncccc5c4n3)c2)cn1`, the activity change, negative = inhibition in test [1] was -8.7%; in test [2], 11.3%; in test [3], -9.07%; in test [4], -9.43%; in test [5], 0.955%.
On the same counts, the results for `CCCS(=O)(=O)N1C[C@@H](COC)[C@H](c2nc(C)no2)C1` are -6.04%, -8.62%, -2.51%, -18.9% and -11.4%.
The corresponding values for `Cc1ccccc1CN1C(=O)c2cc(-c3ccco3)nn2CC1(C)C(=O)NC1CCCCCC1` (stereo not given) are -12%, 0.644%, -11.7%, -9.87% and -8.5%.
The corresponding values for `Cc1ccccc1CNC(=O)C1(C)Cc2ccccc2C(=O)N1CCC(C)C` (stereo not given) are 3.43%, 1.91%, -1.65%, -2.5% and -1.86%.
For the compound `COc1ccc(C2(O)CCC(N3CC[C@@H](NC(=O)CNC(=O)c4cccc(C(F)(F)F)c4)C3)CC2)cn1` (stereo not given in full), the activity change, negative = inhibition in test [1] was -8.54%; in test [2], -27.7%; in test [3] it was -4.39%; in test [4] it was -28.8%; in test [5] it was -18.5%.
On the same counts, the results for `COc1ccc(-c2cc3n(n2)CC(C)(C(=O)NCc2ccccc2)N(c2ccc(OC)cc2)C3=O)cc1` (stereo not given) are 0.087%, 3.62%, -3.67%, 2.08% and -4.09%.
In the case of `CCCCCCOC(=O)/N=C(\N)c1ccc(NCc2nc3cc(C(=O)N(CCC(=O)OCC)c4ccccn4)ccc3n2C)cc1`, the activity change, negative = inhibition in test [1] was 0.976%; in test [3] it was -38.9%.
As to `O=c1n(CCN2CCCN([S+](=O)([O-])c3cccc(C(F)(F)F)c3)CC2)nc2n1CCCC2`, the activity change, negative = inhibition is -5.14% in test [1]; -4.71% in test [2]; -1.02% in test [3]; -8.14% in test [4]; -11.7% in test [5].
On the same counts, the results for `CC(=O)Nc1cccc(-c2n[nH]c3c2CC(=O)N(CCOc2ccccc2)C3)c1` are -22.3%, -14.6%, -24.4%, -23.5% and -25.7%.
The corresponding values for `Cc1nn(C)c(C)c1CCC(=O)NCCc1ncc(C)n1C1CCCCC1` are -3.54%, -4.04%, -35.1%, -13.9% and 7.53%.
Turning to `CS(=O)(=O)N(C1CCOCC1)C1CN(S(=O)(=O)c2ccccc2)C1`, the activity change, negative = inhibition in test [1] is 2.18%; in test [2] it was -1.87%; in test [3], 1.08%; in test [4], 1.49%; in test [5], -3.73%.
For the compound `CC(C)n1cnc2c(NCc3cccc(C(F)(F)F)c3)ncnc21`, the activity change, negative = inhibition was 7.24% in test [2], -19.1% in test [4] and -9.84% in test [5].
With `Cc1cccc(CNC(=O)C2(C)Cn3cnc(C(=O)NCCc4cccs4)c3C(=O)N2C2CC2)c1` (stereo not given), the activity change, negative = inhibition in test [1] is 2.59%; in test [2], 1.86%; in test [3] it was 11.1%; in test [4] it was 5.1%; in test [5], 9.68%.
In the case of `CN(C)CCCN1c2ccccc2Sc2ccc(Cl)cc21`, the activity change, negative = inhibition in test [1] is -1.71%; in test [2], 16.2%; in test [3] it was -2.25%; in test [4], -13.4%; in test [5], 2.47%.
For the compound `COC(=O)c1ccc([C@@H]2Nc3ccc(OC)cc3[C@@H]3C=CC[C@@H]32)cc1`, the activity change, negative = inhibition in test [1] is -6.58%; in test [2], 3.66%; in test [3] it was -3.02%; in test [4] it was -16.9%; in test [5], -13.4%.
On to `Nc1nc(C2CC(NC(=O)c3[nH]nc(N)c3-c3ccccc3)C2)cc(=O)[nH]1` (stereo not given), for which the activity change, negative = inhibition was -7.34% in test [1]; -7.61% in test [2]; -9.42% in test [3]; -5.39% in test [4]; -5.36% in test [5].
With `Cc1nnc(-c2cc(-c3ccc(CO)cc3)ccn2)n1Cc1ccccc1`, the activity change, negative = inhibition in test [1] is -8.43%; in test [2], -3.47%; in test [3], -9.37%; in test [4] it was -19.6%; in test [5], -13.4%.
The corresponding values for `CNc1ccc(C(=O)NCCCc2c(C)noc2C)cn1` are -2.04%, -0.307%, -1.09%, -12.5% and -4.8%.
On the same counts, the results for `Cc1nc(-c2cccnc2)sc1C(=O)Nc1ccccc1-c1cn2c(CN3CCOCC3)csc2n1` are -2.38%, 2.37%, 3.03%, -8.39% and -2.92%.
On the same counts, the results for `Cc1cccc2c1nc1n2[C@@H](CNCc2nc3ccccc3n2C)COC1` are -10%, -6.84%, -11.7%, -29.3% and -6.11%.
For the compound `CCCNC(=O)c1cc2n(n1)CC(C)(C(=O)NCc1ccccc1)N(C)C2=O` (stereo not given), the activity change, negative = inhibition is 3.69% in test [1]; 0% in test [2]; -0.25% in test [3]; 5.17% in test [4]; 0.005% in test [5].
The corresponding values for `COc1ccccc1CNC(=O)C1(C)Cn2nc(-c3ccccc3)cc2C(=O)N1Cc1cccc(OC)c1OC` (stereo not given) are 8.64%, 0.857%, 9.36%, 6.97% and 2.79%.
